Binding signal (log2 normalized intensity) data for 72 sequences are collected here from publication PMC10726135.

The list shows a part of the results. At the low end of the ranking, values are background and their order means little. Measured with an extract: partners may take part in the binding.

The target of the experiment is T1, HNF4alpha2 (COS-7 nuclear extract) (UniProt P41235).
T1 sequence: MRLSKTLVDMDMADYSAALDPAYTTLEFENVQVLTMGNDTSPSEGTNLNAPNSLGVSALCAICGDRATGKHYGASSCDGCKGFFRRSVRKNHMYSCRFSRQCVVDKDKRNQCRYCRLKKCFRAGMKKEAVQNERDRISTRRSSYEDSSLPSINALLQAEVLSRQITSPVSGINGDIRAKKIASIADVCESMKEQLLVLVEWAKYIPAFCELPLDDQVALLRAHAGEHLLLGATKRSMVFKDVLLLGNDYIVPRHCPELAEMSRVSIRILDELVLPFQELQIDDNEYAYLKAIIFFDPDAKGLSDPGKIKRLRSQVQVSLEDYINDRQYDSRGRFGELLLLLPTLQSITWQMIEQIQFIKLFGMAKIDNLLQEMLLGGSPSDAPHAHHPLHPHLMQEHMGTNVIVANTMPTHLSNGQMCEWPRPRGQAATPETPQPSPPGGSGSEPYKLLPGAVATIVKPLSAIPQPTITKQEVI
Nature of the experiment: protein-binding microarray. The settings on record: COS-7 nuclear extract on double-stranded Agilent 4x180k PBM; binding buffer, salt, pH and temperature not given; high values mean tight binding; double strand, one strand shown; sequences stand for … in …GCCTAGGGAGATTAGAGTATCGGTCGA
For GCTTTTCCATTGACAGTCCAAGGACTCAAT, the binding signal (log2 normalized intensity) is -1.12. On to AAGAGATAGCGAGAAGGCAGGTAGAAGAAG, for which the binding signal (log2 normalized intensity) is -1.14. The value for TTCCAGAAATCTGACCTCTGCCTCGGCCAC was 1.91; that for GCTAAGATTGGACTCTGCACTCCAGCCTGG was 4.7.

Consider AGAGATCAAAGGTGAGTGGGGAAAGAGCCC, for which the binding signal (log2 normalized intensity) stood at 1.91.

Consider CAGGGGTAAGTTTCTAACTACCATGAATTC, for which the binding signal (log2 normalized intensity) is -0.788. With TCAGACCACCAGCTGCTTCGGCCAGCACAG, the binding signal (log2 normalized intensity) is -1.2.

In the case of GATTTACATTGAGTTAACTATTGAGACTTT, the binding signal (log2 normalized intensity) was found to be 1.77. ATCTTTCTGTCTCATTCCCTGACAGACCCC: the binding signal (log2 normalized intensity) was found to be 3.76. Regarding ACTGCGGACATAGCTTGCCACAGCATGTTA, the binding signal (log2 normalized intensity) is -1.19.

In the case of CCCACTAGGCCAGCCCGAGCGCGTCTGCCA, the binding signal (log2 normalized intensity) was -1.23. As for GCCCTCCTAGCAAACAATGAGGACGTGTGT, the binding signal (log2 normalized intensity) worked out at 0.801.

Regarding TTTAATGTATAAACCCTGAGGGTCAACACA, the binding signal (log2 normalized intensity) amounted to 1.11. Regarding GGATGCCAAATTCCTCCCACTCTGACATCC, the binding signal (log2 normalized intensity) was -0.153. On to AAGAGCAAACAATCAGTGAAATGCCAGTGG, for which the binding signal (log2 normalized intensity) is -1.12. Consider AGTGCTGTTTGCAAGGATTAAGTGAGATCA, for which the binding signal (log2 normalized intensity) stood at 1.33. On to AACAAACGACGCTCCTATCATCCCTATCAC, for which the binding signal (log2 normalized intensity) is -1.15. As to AGAGTAGCTCCAAAAGGTGGACAAGACTGG, the binding signal (log2 normalized intensity) is -1.07.

For GGCAGGACAGCAGGAGTGGGAGAAAGCTTT, the binding signal (log2 normalized intensity) was -1.07. Take CCCCATGATGATAGCAAACACGATTGGATG: the binding signal (log2 normalized intensity) was 0.412. Turning to CATTCACATGACCTTTGTCCGTTCCTGCCT, the binding signal (log2 normalized intensity) was 5.92. GCAGGGAGAGTTGCACCCAGGCCGTTGGAC: the binding signal (log2 normalized intensity) was -0.957. As for AATCCCATGCTGATGGCAAACACCTGGCCA, the binding signal (log2 normalized intensity) is -1.2. With GCTGTCTACTCTGGGGGTCAGCAATGGTAA, the binding signal (log2 normalized intensity) was determined as 1.8. Regarding CTGGTGCCTCCTTATCTCCCCAACTGTAAA, the binding signal (log2 normalized intensity) came to 3.35.

Take CACAAAAGCTGCTGCCAAGCGTCAGTCATA: the binding signal (log2 normalized intensity) was -1.09. The same measure for ACGCTTGACTGGCTCCACCACTTTGCCTAT: -1.11. As to GGACAGGCCAAATCCAGTAAGGCACGGAGT, the binding signal (log2 normalized intensity) was -1.1.

ATCTGAAGGAAATGGACAACGGAAAGACAG: the binding signal (log2 normalized intensity) was -1.17. For CTTGCATTTCTTCAGATGCAACACAGGGGG, the binding signal (log2 normalized intensity) was -0.842. Take AAGAGGCTCTTCAATGCATTCCTGAAGCCT: the binding signal (log2 normalized intensity) is -1.17.

For the sequence CCCTTTGGTCTGGAACACAGAGGGAAATGC, the binding signal (log2 normalized intensity) is -0.845. For GCCCAAAGGTCAGTCTGCAGCTAATAAACT, the binding signal (log2 normalized intensity) stood at 2.21.

In the case of ATAAGATGTGTAAAACACAAATCTCCACAA, the binding signal (log2 normalized intensity) is -1.18. The same measure for GGACTTTGCTCTGCTCATTTTTCCCCTGAC: 4.59. As for CCCCCAGTGGAATGTGCCCTTTGACCTCTC, the binding signal (log2 normalized intensity) came out at 9.72. In the case of CAGTGCTGCCATTTGAGGAGTGTTGAGATT, the binding signal (log2 normalized intensity) stood at 1.3. Turning to TCACAGTGCCTCTGCAAGTTGGCCTTACTA, the binding signal (log2 normalized intensity) was -0.392.

For ACGGTGTCCCTGGCCAATCCCAGGGTCAGA, the binding signal (log2 normalized intensity) worked out at 1.03.

For the sequence GCTAGAGGCCCTGCATTAAACAAGAGAGAG, the binding signal (log2 normalized intensity) was -1.02. In the case of CACCTTTTTTGGCCTTTACCCCTTGAGTTT, the binding signal (log2 normalized intensity) was 3.93.

On to TAAATGCAGTTTGTCAAGTGCCCGGATAAA, for which the binding signal (log2 normalized intensity) was 1.35. TGGTATGTTTGGATTGGGCAATGACCTGGA: the binding signal (log2 normalized intensity) was 2.18. In the case of AAAAGGGACAAAGGTGAGTGCAACCTTCTC, the binding signal (log2 normalized intensity) came to 1.95. For CCATTGTAGATTCAATAATACAAGAGGCTT, the binding signal (log2 normalized intensity) was -0.887. For the sequence TGTGTGCCTGAGAATGAGGGGCAGGCTTAG, the binding signal (log2 normalized intensity) was -0.815.

As to AGGCTAGAATGGAAACCAATAACTGCTTCT, the binding signal (log2 normalized intensity) was -1.13. The same measure for GAGAGTACACAGAAGTTAATTTCAAAACAA: -1.2; for ACAGACATAAACACAGACACACATGAGCTA: -1.19; for ATTGACCACCTCCTCTGAAGCTAGGACAAG: -1.06. The same measure for AGAAAAATATGTGGACTTCAAAGGTACTTA: 0.694; for GTTTTCTGTCTTCATCCTGAGAGGGCTCAA: 0.762. For the sequence GAGGAAAACTGGGCAAAGGTCAGGATCTCA, the binding signal (log2 normalized intensity) worked out at 4.49. For the sequence CTGCAGAGGCTGGTTCACACCCCACGTACA, the binding signal (log2 normalized intensity) was determined as 1.79. With GATTCCAGCTCTCGGATCCTCTGGGCTGGC, the binding signal (log2 normalized intensity) is -1.08. CAAAGTCCACCTCAACCTCCCCCTGGGGAC: the binding signal (log2 normalized intensity) amounted to 3.52. Turning to AGGAGCGAGTCAAGGGTCAATCCTCTCTTT, the binding signal (log2 normalized intensity) was determined as 2.44.

Take ACCCCTAATGAATGGCAAATTAAACAGCAT: the binding signal (log2 normalized intensity) is -0.91.

GACTTTGGTTGGATTTCTTGGCTTCTCTTG: the binding signal (log2 normalized intensity) was 1.04. On to GAAGACACAAAGCTTGGGTTCACATTCCAG, for which the binding signal (log2 normalized intensity) came out at 0.811.

TGTGAATCTCCTGCTTTTGGAAAACTGGCC: the binding signal (log2 normalized intensity) was -0.0827. For the sequence GCTCAGAGGCACAGTCTGCTTTCAGAGATG, the binding signal (log2 normalized intensity) is -1.08.

As for AGGGGCATCCTCATTGCCTCTGGGCTTTGA, the binding signal (log2 normalized intensity) was -0.381. The value for GAACAGATATTGGCCAAAGGGCACAAGAGG was 1.49; that for GGCAGCCAGCGCAGGGGCTTCTGCTGAGGG was -1.14; that for TGTGTCTCCAGGAGCAATCATCGCACCTAA was -1.15.

For TCAAGGTTTCTTTCCCTGGGGTCAATAGTT, the binding signal (log2 normalized intensity) came to 3.59. For the sequence GGAGGAAATAGAGAGCAGACAGGGGCTCAG, the binding signal (log2 normalized intensity) is -1.23.

In the case of TTTTTCTTTTTTTCCCCCTCACTGAATATG, the binding signal (log2 normalized intensity) came out at 4.18. The value for TGGCTAAGACAGGGGCTATTTCTGACCTTT was 6.5; that for CCACCCTATTGATGCAAGGACAATGTCTAG was 0.506. As to TTTTAAAAGCCCTCAAATACTCTGAGTAAA, the binding signal (log2 normalized intensity) stood at 0.153.
